Data on 167 variants can be found in the RNAGym collection of RNA variant scans (doi:10.7554/elife.90254).

The source gives no read counts; variants with many changes may rest on few reads.

B1: OR4K15 (parent)
chain: GUUAACGGUCAUAGGCCAUGGAAACUAGGAGCACCAUUUCGCUGCCAGUGAAGAAAUGAACAAAGAAAAUCUGGGCCAGGCAGGCAUCAAAAGAAAUAGUCUUGCGCUCAACCAGAAAGUCUGUAAUCAUUUUAAGGGUA

The variants in the data set derive from B1. Description: self-cleavage, relative activity (ratio to wild type); higher = more cleavage; in vitro, sequencing; the parent is a self-cleaving ribozyme.
With U3C A55G A66G, the self-cleavage came out at 0. As for A5G A55G U70C A78U A86G, the figure is 0.21; as for A5G A36G G83A A89U, 1.05; as for A4U U38C U133C, 1.5. Under A4G A30G U38C stands 1.34; under A5G A64G U87C A118G U122A, 1.38.

For U3C U39C G41U A54G U97C U102G, the self-cleavage amounted to 0.22.

Take U3C A55G A110G A117U: the self-cleavage is 0.12. Under A5G A52G A92G A114G stands 0.87; under A5G A69U U102C, 1.32; under A5G A24G U57C, 0.55. Under A5G A59C A116G A126G A134G stands 0.21; under U3C A56G G83A A90G A114U, 0.09; under A4G A63G A111G, 0.1.

Consider A5C C17U A134G, for which the self-cleavage is 1.29. Take U3C A63G G80C U108A: the self-cleavage was 0.03. Under A4G U9A A11G A24G A56G A114G stands 0.58. As for A5G A27U U39C A59U U72C, the figure is 0.25. A5G A33G A60G U87A: the self-cleavage came to 0.6. As for A4G A82U A117G, the figure is 0.19; as for A5G A60U A116G A126C, 0.41.

For U3C A23G A54G, the self-cleavage came out at 0.36. As for U3C A23G A62G U102C, the figure is 1.34. As for U3C A13G A22G U87C, the figure is 1.07.

Take A5G A18U A51G A96G: the self-cleavage turned out to be 2.31.

With A4G G83A U108G, the self-cleavage was 0.02. On to A5G A56G A94G, for which the self-cleavage is 1.29. As for A4G A96G A117G, the figure is 1.1; as for A5G A67U A78G, 0.64. Under U3C A27C A95G stands 0.75; under A5G A54G A60U A92C, 0.9; under A5G A23C A24G, 0.78. U3C A36G A51G: the self-cleavage came to 1.02. Regarding U3C A33U A47G A94G, the self-cleavage was 1.17. Turning to A4G U49C A68G A111U, the self-cleavage came to 0.31.

Turning to A5G A23G A69G, the self-cleavage is 0.75.

Turning to A4G A89G A117G, the self-cleavage came out at 0.99. As to A4G A66G A125G, the self-cleavage was determined as 0.21.

As for A4G A62U A90C A96U, the self-cleavage is 1.09. As for U3C A66G A95G A140G, the figure is 0.92; as for U3C U72C A78G A92G, 0.15. Under A4G A18G A78G U108C U120C U130C stands 0.01; under A5G A47G A60G U72G, 0.08; under U3C U39A A51G A86G U139C, 0.3. Under A5G A18C A52G U122C stands 0.71; under A5C A23G A90G, 1.02; under U3C A23U A54G A89G C113U, 0.05. With U3C A23U A90G, the self-cleavage turned out to be 0.53. Under A4U A51G A60G stands 2.64; under U3C A22G U70C A89G A94G A118G, 0.3. As for A5G A30G G84A A91U U120C, the figure is 1.68. As for A4G U37C U38C, the figure is 2.55. Turning to U3C U70C U87C A110G, the self-cleavage amounted to 0.12.

For the variant A5G A24U A60U, the self-cleavage was 0.87. Under U3C U38C U49C U70C G84U A114G stands 0.07; under A4G U49C A89U, 0.77. Turning to A5G A59G U97C, the self-cleavage was 1.13. On to U3C C61U U133C, for which the self-cleavage is 1.59. Regarding A5G A30G C40A A60C, the self-cleavage was 1.12. On to U3C U43C A47G A94G, for which the self-cleavage was 0.68. As for A4G A59U A126G, the figure is 0.79.

With A4U A78G U103C, the self-cleavage was 0.23. Turning to A4G A64G U97C, the self-cleavage stood at 0.84.

Regarding A5G A13G U87A, the self-cleavage was 0.76.

With A4G A60G U87C, the self-cleavage is 1.42. Under A5G A13U A36G A110G U124C stands 0.09; under U3C A51G A56G U102C A125G U132C, 1.11; under A5G A47G U108C, 0.02. As for A4G U12C A30G G104A A111G, the figure is 0.07. Under A5G A36U A69U A82G A117G stands 0.6; under U3C A24G A63G, 0.87. As for A4C A54G U57C A67G G84A A94G, the self-cleavage stood at 0.72.

Take U3C A95G A134G: the self-cleavage turned out to be 1.75. In the case of A5G A11G A56G A126G, the self-cleavage was found to be 0.95. Under A4G A23G A59G A82G stands 0.73. As for U3C A24G U70C A95G, the figure is 1.02; as for A4C U12A A117G, 1.67. Under A5G A66G A67G stands 1.97; under A5C U37C A55G, 1.83. With A4G U19C U43A A86G, the self-cleavage was 1.02. A4U A51G A60G A90G U130C: the self-cleavage was 1.47. Under A4G A59U C101U U108C stands 0.09. Under U3C U87C U120C stands 0.5; under A5C A67G U120C, 0.6; under A4G A23G U120A U130C, 0.53. As for A4G A5G A24G A62G U70C A111G, the figure is 0.01; as for A4G A56G A60G, 0.77; as for A5G A11U A91G, 1.04.

In the case of U3C A33G U120A, the self-cleavage was found to be 1.15. Under A5G A23G A52U stands 1.03; under A5G A51G A68G U133C, 2.15; under A5G A54G C109U A129G, 0.61.

For A4G A52G A89U A95G, the self-cleavage worked out at 1.99. As for A5C A24G A33U A51G A126G U127C, the figure is 0.5. Under A5C A95G G115U stands 0.35; under A4G A54U U103C A110G A126U, 0.09; under A4G A24C A56G A110G, 0.12. As for A4G A56G A59G A69G A134G, the self-cleavage was determined as 0.69. Under A4G A5G A59G U120C stands 0.52; under A5G A23G A95G U102G, 1.22; under A5G A52G A111U, 0.2. On to A5G A23G A60G A64C A69U A117G, for which the self-cleavage was determined as 0.73. Consider A5G A11G A30G A64G, for which the self-cleavage was determined as 1.06. As to A5G A27G A30U A68G G106U A110U, the self-cleavage worked out at 0. As for U3C A63G A68C A110G A129G, the figure is 0.22; as for A5C U43A A52G U102C, 2.02; as for A4G A5G U19C A22U A90G, 1.22.

As for U3C A30G A59G A111G A116U A118G, the self-cleavage stood at 0. Under U3G C17U A24C G83A stands 2.16; under A4G A64U A91G, 1.25; under U3C A23U A30G A52G A54U, 1.61. For A5G A22U U39C, the self-cleavage was determined as 1.39. As for A5G A11G U38C, the figure is 0.98; as for U3C A11C G21U A89G, 0.89. As for U3C A27U A62G, the figure is 1.12; as for A4G A59U A96G A116G U127C, 0.56; as for A5G A54G A94G, 0.5.

Consider A5C A30U A56G, for which the self-cleavage is 1.94.

Regarding A5G A27G A95G A110G, the self-cleavage came to 0.19. Under A5G A30G U37C A69G stands 0.34.

As to U3C A59G A60G C101U, the self-cleavage came out at 0.25. Under A4G A33G U97C U122A stands 0.71. Under A5G A33G A51G stands 1.08; under U3C A82G A86U, 0.63; under U3C U12C A47G A68G U103C G138A, 1. Turning to U3G A67G A90G U102C, the self-cleavage was 1.25.

As for U3C A23G A51G, the self-cleavage worked out at 1.02. In the case of U3C U57C A82G U87C A96G C105U U120C U122C U131C, the self-cleavage is 0.

Turning to A4G U38A U100C, the self-cleavage turned out to be 1.44. Under U3C A33U A110G stands 0.22; under A4G U39C G65A, 1.91; under U3C A78U A95G, 0.87.

For U3G U26C U127C, the self-cleavage worked out at 0.6. Under U3C A22G A69G U87C A98U U131C stands 1.13. A5G A47U U102C: the self-cleavage turned out to be 1.21. Under A4G G21U U120G stands 1.67; under U3C U12C A63G A64G C81A, 0.36. As for A5G A59G A114G A129G, the figure is 0.29; as for A5C A55G A68G A86C, 0.77. Under U3G A117U A134G stands 0.83; under A4G A23G A96G, 0.67. For the variant A5G A27U U108C A126G, the self-cleavage was determined as 0.03. As for U3C A11G A54G, the figure is 0.64; as for A5G A27G A94G, 1.61. As for U3C A13U U130G, the figure is 1.24; as for A5G A33C A47G U103C, 0.61; as for U3C G104A A117G G138A, 0.03. For the variant U3C U43A A62G A78G U122C, the self-cleavage turned out to be 0.39. Under U3C A62U A114U stands 0.13; under A4G U108C U139C, 0.05. Under A4G A52G A56G U87C stands 0.58. As for A4G U9A A33G U39A A55G A89G, the figure is 1.18.

For the variant A4G A5G A54G, the self-cleavage stood at 0.78. Under A4G A60G U72C stands 0.3. Turning to A4G U38C A67G A68C U102C, the self-cleavage came out at 0.27. Under U3C A18G U19C U37C A52G A66G A117U A129G stands 0.47; under A4G U49A A63G, 1.54. As to U3C A24U A60G A62U U87C, the self-cleavage was found to be 0.73. As for A4G A51C A135U, the figure is 1.2. Under A5G A68G A78G stands 0.37.

As for A4U U38C A59U A96C, the self-cleavage turned out to be 2.1. Under A5G A67G U100C U127C U131C stands 2.14; under A4G A23G U100C A126U, 0.82. In the case of A5G A33G A118G, the self-cleavage is 0.6. As for A5G A66G A135C, the figure is 1.32; as for A5G A22U A89U G137A, 0.78; as for U3C A47G U72G U130C U131A, 0.08.
